Measurements as given in PubChem BioAssay AID1030 (National Center for Advancing Translational Sciences (NCATS), 2008).
Among all 220,000 compounds or so, about 16,000 (7.3%) were called active. The shares of active, inactive and inconclusive entries below differ from those in the screen. Calls follow the shape of the dose curve; as a rule, active = well fitted inhibition curve with a large enough effect (not every such curve was filed as active); inconclusive = small, poorly fitted or top-dose-only effect, or another doubt; inactive = no such curve, though single readings can be large or run the other way. Potencies beside an inconclusive call are fits to weak or partial responses and may not hold up.

target: Aldehyde dehydrogenase 1A1 (Homo sapiens) (UniProt P00352); experiment: qHTS Assay for Inhibitors of Aldehyde Dehydrogenase 1 (ALDH1A1); settings: Purified ALDH1A1, NADH fluorescence, propionaldehyde substrate; series mostly up to 75.3 µM; activity, negative = inhibition: at the top concentration;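 as to activity, negative = inhibition: plate controls were no enzyme wells and a reference inhibitor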
Sequence of UniProt P00352 (P00352 whole entry, looked up): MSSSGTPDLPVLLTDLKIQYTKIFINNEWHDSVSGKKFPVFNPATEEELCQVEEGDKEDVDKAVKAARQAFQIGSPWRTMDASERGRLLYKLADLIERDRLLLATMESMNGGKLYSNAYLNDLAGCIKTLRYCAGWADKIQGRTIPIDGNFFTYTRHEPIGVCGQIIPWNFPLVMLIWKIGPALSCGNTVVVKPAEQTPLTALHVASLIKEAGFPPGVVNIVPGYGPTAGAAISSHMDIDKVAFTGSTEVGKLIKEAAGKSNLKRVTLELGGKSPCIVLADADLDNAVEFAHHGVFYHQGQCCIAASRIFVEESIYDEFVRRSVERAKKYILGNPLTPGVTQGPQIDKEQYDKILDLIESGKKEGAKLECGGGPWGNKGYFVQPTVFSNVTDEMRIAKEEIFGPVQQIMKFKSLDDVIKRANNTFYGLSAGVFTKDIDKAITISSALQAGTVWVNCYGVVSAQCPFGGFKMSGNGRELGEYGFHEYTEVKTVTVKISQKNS
Potency is read from the fitted curve at half-maximal effect; tags tell the direction and shape of the fitted curve.

Potency, active:
Cc1nn(-c2ccccc2)c2sc(C(=O)N(CC(=O)NC(C)(C)C)Cc3ccco3)cc12 25.1 µM
COC(=O)C1=C(C)NC(=O)/C1=C\c1cc(C)n(-c2ccccc2F)c1C 15.8 µM
CCn1c(=O)cc(OCC(=O)NCc2ccc(C)o2)c2ccccc21 22.4 µM
COc1ccc(NC(=O)COC(=O)Cc2ccccc2[N+](=O)[O-])cc1OC 14.1 µM
S=C1NC(C23CC4CC(CC(C4)C2)C3)=CC(c2ccc3c(c2)OCO3)N1 (stereo unspecified) 2.51 µM
CC(C)(C)C(=O)NC(=S)Nc1ccc(F)cc1 22.4 µM
COc1ncnc2c1NC1=C(S2)C(=NCCC(=O)O)CC(C)(C)C1 5.01 µM
CS(=O)(=O)N(CC(=O)NCc1ccco1)c1ccc(OCc2ccccc2)cc1 18.9 µM

Potency, inconclusive:
COc1cccc(Cn2c(=O)c(CCc3ccccc3)nc3cnc(N(C)C)nc32)c1 22.4 µM [inhibitor, partial curve]
CCOC(=O)CSc1nc2ccccc2c(=O)n1CCC(=O)NCCc1ccc(OC)c(OC)c1 3.55 µM [inhibitor, full curve]
O=Cc1cn(-c2ccccc2)nc1-c1cc2cc(O)ccc2oc1=O 3.55 µM [inhibitor, full curve]
N#C/C(=N\Nc1ccc(Cl)cc1)C(=N)N1CCCCC1 3.16 µM [inhibitor, full curve]
CCOc1ccc(C(=O)NC(=S)N2CCN(c3ccc(C(F)(F)F)cc3[N+](=O)[O-])CC2)cc1 8.91 µM [inhibitor, single point]
CCOC(=O)c1c(-c2ccccc2)cn2ccccc12 28.2 µM [inhibitor, partial curve]
COC(=O)c1[nH]c2cc(OC)ccc2c1NC(=O)CN1CCOCC1 14.1 µM [inhibitor, partial curve]
CCn1c(CCCOc2ccc(Cl)cc2Cl)n[nH]c1=S 0.251 µM [inhibitor, full curve]
COc1ccccc1S(=O)Cc1ccc(C(=O)NCCc2ccc(Cl)cc2)o1 (stereo unspecified) 31.6 µM [inhibitor, single point]
O=C(/C=C/c1cccc([N+](=O)[O-])c1)Nc1cccc(NC(=O)c2ccco2)c1 39.8 µM [inhibitor, single point]
CCOC(=O)N1CCN(C(=O)c2ccc3c(=O)n(-c4ccccc4F)c(=S)[nH]c3c2)CC1 22.4 µM [inhibitor, partial curve]
CC(=O)Nc1ccc(NC(=O)C2CCN(c3ccc(C(F)(F)F)cn3)CC2)cc1 12.6 µM [inhibitor, partial curve]
O=C(O)c1cccc(-c2ccc(/C=N/NC(=O)c3cccnc3)o2)c1 25.1 µM [inhibitor, partial curve]
COc1cccc([C@@H]2Oc3ccc(OC)cc3C[C@H]2OC(=O)NCc2ccco2)c1 20 µM [inhibitor, single point]
CCOc1ccc(C(=O)N2CCN(c3cnn(-c4ccccc4)c(=O)c3Cl)CC2)cc1 44.7 µM [inhibitor, single point]
CCCCN(C)C(=O)CCC(=O)Nc1ccc2nc(N3CCOCC3)cc(C)c2c1 28.2 µM [inhibitor, partial curve]
COc1cc(CN2CCNC(=O)C2CC(=O)NCc2csc(C(C)C)n2)cc(OC)c1 (stereo unspecified) 39.8 µM [inhibitor, single point]
Cc1cccc2cc(C#N)c(NCCNC(=O)COc3ccccc3)nc12 6.31 µM [inhibitor, single point]
COc1cccc2cc(C(C)N(CCCN3CCOCC3)C(=S)Nc3ccc(C)c(C)c3)oc12 (stereo unspecified) 39.8 µM [inhibitor, single point]
O=C(O)CCC(=O)NNC(=O)c1cccs1 20 µM [inhibitor, partial curve]
O=C(CSc1nnnn1C1CCCCC1)NCc1ccccc1 20 µM [inhibitor, partial curve]
CC1CCCCC1NC(=O)c1ccc(S(=O)(=O)N2CCCC2)cc1 (stereo unspecified) 20 µM [inhibitor, single point]
CCN(CC)c1ccc2cc(C(=O)Nc3ccccn3)c(=O)oc2c1 28.2 µM [inhibitor, partial curve]
Cc1c(Br)c([N+](=O)[O-])nn1CCCC(=O)N1CCN(c2ccccc2)CC1 25.1 µM [inhibitor, single point]
CCCCOc1ccc2c(c1)/C(=C(\C(Cl)=C(Cl)Cl)[N+](=O)[O-])N2 20 µM [inhibitor, partial curve, poor fit]
CN(C)S(=O)(=O)c1cccc(NC(=O)COc2nc3ccccc3nc2N2CCOCC2)c1 39.8 µM [inhibitor, single point]
Cc1ccccc1S(=O)(=O)Cc1ccc(C(=O)N2CCN(c3ncccn3)CC2)o1 28.2 µM [inhibitor, partial curve]
CCC(c1nnnn1Cc1ccccc1)N(Cc1cc2cc(OC)ccc2[nH]c1=O)CC1CCCO1 (stereo unspecified) 39.8 µM [inhibitor, single point]
COc1ccc(CCNC(=O)C2CCN(S(=O)(=O)c3cccc4nonc34)CC2)cc1OC 39.8 µM [inhibitor, single point]
Oc1ccc(-c2csc(Nc3cccnc3)n2)cc1 39.8 µM [inhibitor, single point]
COCCCNS(=O)(=O)c1ccc2c3c(cccc13)C(=O)S2 7.94 µM [inhibitor, partial curve]
COC(=O)c1cc2c(s1)-c1ccccc1CC2 28.2 µM [inhibitor, partial curve]
COc1ccc(CNC(=O)CSc2nnnn2Cc2ccccc2)cc1 25.1 µM [inhibitor, partial curve]
Nc1ccc(C23CC4CC(CC(O)(C4)C2)C3)cc1 44.7 µM [inhibitor, single point]
Cc1cccn2c(=O)c3cc(C(=O)NCC4CCCO4)c(=N)n(CCN4CCOCC4)c3nc12 (stereo unspecified) 31.6 µM [inhibitor, partial curve]
Cc1c(NC(=O)c2cc(CC(C)C)on2)c(=O)n(-c2ccccc2)n1C 39.8 µM [inhibitor, single point]
COc1ccc(C2=NN(C(=O)CSc3nc4ccccc4s3)C(c3ccc(OC)cc3)C2)cc1 (stereo unspecified) 39.8 µM [inhibitor, single point]
CC(O)CNc1nc2sc3c(c2c(=O)n1CCc1ccccc1)CCCCC3 (stereo unspecified) 39.8 µM [inhibitor, single point]
O=C(c1cc(Cl)c(=O)n(Cc2ccccc2)c1)N1CCOCC1 8.91 µM [inhibitor, single point]
COc1cc2c(cc1OC)C1CCC3=C([C@H](C)OC3=O)N1CC2 (stereo partly specified) 25.1 µM [inhibitor, partial curve]
O=C(Nc1ncc2c(n1)-c1ccccc1OC2)c1ccc(Cl)cc1Cl 28.2 µM [inhibitor, partial curve]
CCOc1ccccc1-n1c(SCC(=O)N2CCCC2)nnc1-c1ccc(O)cc1 31.6 µM [inhibitor, single point]
COc1ccc(Nc2c(C)cccc2C)cc1 35.5 µM [inhibitor, single point]

activity, negative = inhibition, inactive:
COc1ccc(OCC(=O)N2N=C(C)CC2(O)C(F)(F)F)cc1 (stereo unspecified) 0.321%
CC(=O)C1=C(O)C(=O)N(CCCn2ccnc2)C1c1ccc(C)cc1 (stereo unspecified) -9.64%
CCn1c(=O)c2c(n3cnnc13)-c1ccccc1CC21CCCCC1 -8.47%
CSc1ccc(S(=O)(=O)NCCSc2ccccn2)cc1 -6.95%
O=C(Nc1ccc(N2CCOCC2)cc1)C1CC(O)CN1S(=O)(=O)c1ccc(Cl)cc1 (stereo unspecified) -1.5%
CCOC(=O)OCC1OC(c2ccc(C(C)=O)cc2)C=CC1OC(=O)OCC (stereo unspecified) -17.1% [at 13.5 µM]
CCOc1cccc2cc(C(=O)N3CCc4ccccc4C3)c(=O)oc12 -12.2%
Cc1ccc(-n2c(C)cc(-c3csc(N)n3)c2C)cc1 -2.42%
O=C(NCc1n[nH]c(=S)n1-c1ccc(Br)cc1)c1cccs1 -12%
COc1cc(Cl)nn(-c2ccccc2)c1=O -0.944%
O=C(O)c1cnc(-c2ccccc2)nc1C(F)(F)F 4.67%
COc1ccccc1Oc1ccc(S(=O)(=O)Nc2cccnc2)cc1 37.8%
Cc1ccc(S(=O)(=O)N2CCCCC2)cc1NC(=O)Cc1c[nH]c2ccccc12 -5.5%
N#Cc1c(N)nc2c(c1N)CC(CO)O2 (stereo unspecified) 0.417%
CCOC(=O)C1CCN(c2c(NCc3ccc(C(=O)NC4CCCC4)cc3)c(=O)c2=O)CC1 -9.87%
CCC(C)(C)NC(=O)CN(CCc1cccc(C)c1)C(=O)c1csnn1 -1.9%
COc1ccc(C(=O)NC(C(=O)NCc2ccccn2)C(C)C)cc1 (stereo unspecified) 19.6%
N=C(N)SCCc1cccc(CCSC(=N)N)c1 -3.68%
COc1ccc(C2/C=C\[C@H](O[Si](C)(C)C(C)(C)C)[C@H](C(C)C)CC(=O)N2Cc2ccccc2)cc1 (stereo partly specified) -2.6%
COc1ccc(-c2nnc(SCC(=O)c3ccco3)n2-c2ccccc2)cc1 2.43%
